# In the supplement of paper PMC8728848:
# The other results are listed elsewhere or left out.
# B1: Epa1-NP-mutant-Y228A (Candida glabrata), Q6VBJ0 (protein)
# chain: MILNPALFLNKCVCIYTTLILLLLTNGGYATSSNDISLASKDPTTFPLGCSPDITTPKKGLSMELYSYDFRKKGSYPCWDAAYLDPNYPRTGYKSHRLLAKVDGVTGNINFYYHATKGCTPQLGHLPASYNYPKPLTMTNFTMLLYGYFRPKVTGFHTFTISADDLLFVNFGAGNAFDCCRRDSSADHFGNYQAYAIWGSKTAKDELTVHLDAGVYYPIRLFYNNREADGALSFTFKTESNENTVSDFSEYFFSLDDTEEGCPGLISYDSSCASVKTSKIIGIDYHTETPNENLVPITKTIYHLGIPCTGTTTTPLCGSGFYDPLANKCVTINTSSTSSVTKTTSHTTSKEVSFHSSISSQKTLIPKSIPSPYGPIKSQSIPTEMETSSEISSSEYAFSDVISTPSHSPYTKKHSSLNSSSYTSTVIHSLTSYSISQGIFSTSLSEQNITSKSSTDKFSTATSMSNNITQSSIIISQFSTNNENYTTTSMHTSSDKISTETLNNSISTTTSILFSNSSTILKNNTTIISSDKDTHYHPVNPTIVCSTNKTEIICASITQPSISNSNNHWSSSVLKFNSTTVRSTLPSSAGSNETSINVPFSSSTESNTSTSSTSTSNSKMVRSTLPSSAGSNETSISVPFSSSTESNTSTSSTSTSNSKMVRSTLPSSAGSNETSINVPFSSSTESNTSTSSTSTSNSKTVRSTPFSSAGIIMTSLSQRNNKSASSYASSNSKCYNTADSCRKVHSTPSYLLTSSYTSEGVDYDCSLVSTKLKINDTNCVNNKHTTKSCLKTSVTTTIPTLEIKTARKSSSNTIGLHSYPTSSPNKSISSAPIIGYISSFKTIKTASPSYQTSDLTTITTITSLNNPGSTAVENTHESNDKSRKTSSNDISSKHSVIKETKDAVESSNKSHQTNTLKCSSIIIASSSHNSYESLGGTTLTLTLSKVYSPQNNDTLPFLEISEVNPSRTVLPESSKMMQYLTSTEERNKTARNTIATNIVSISTFHFEGEGNAIRMGYTQLLLMLIGIIVMNIGT
# Key:
# Assay in all cases: glycan array binding signal (z-score within array); higher = stronger binding
# Settings in all cases: glycan notation: IUPAC condensed, linker removed; mutation: Y228A
# [1] = biological target: Gal(b1-4)GlcNAc(b1-3)Gal(b1-4)GlcNAc(b1-2)Man(a1-3)[Gal(b1-4)GlcNAc(b1-3)Gal(b1-4)GlcNAc(b1-2)Man(a1-6)]Man(b1-4)GlcNAc(b1-4)[Fuc(a1-6)]GlcNAc
# Procedure, shortened: (§1)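 The binding signal is a Z-score computed within each array. Data were drawn from 3228 arrays in the Consortium for Functional Glycomics database, restricted to those with a known protein sequence. Scores were averaged over arrays of the same protein sequence at different concentrations or buffers, and over linkers, and negative values can be taken as non-binding.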
# [2] = biological target: Gal(b1-4)GlcNAc(b1-3)Gal(b1-4)GlcNAc(b1-2)[Gal(b1-4)GlcNAc(b1-3)Gal(b1-4)GlcNAc(b1-6)]Man(a1-6)[Gal(b1-4)GlcNAc(b1-3)Gal(b1-4)GlcNAc(b1-2)Man(a1-3)]Man(b1-4)GlcNAc(b1-4)GlcNAc
# Procedure, shortened: as §1
# [3] = biological target: Gal(b1-4)GlcNAc(b1-3)Gal(b1-4)GlcNAc(b1-2)[Gal(b1-4)GlcNAc(b1-3)Gal(b1-4)GlcNAc(b1-6)]Man(a1-6)[Gal(b1-4)GlcNAc(b1-3)Gal(b1-4)GlcNAc(b1-2)Man(a1-3)]Man(b1-4)GlcNAc(b1-4)[Fuc(a1-6)]GlcNAc
# Procedure, shortened: as §1
# [4] = biological target: Gal(b1-4)GlcNAc(b1-3)Gal(b1-4)GlcNAc(b1-3)Gal(b1-4)GlcNAc
# Procedure, shortened: as §1
# [5] = biological target: Gal(b1-4)GlcNAc(b1-3)Gal(b1-4)GlcNAc(b1-3)Gal(b1-4)GlcNAc(b1-2)Man(a1-3)[Gal(b1-4)GlcNAc(b1-3)Gal(b1-4)GlcNAc(b1-3)Gal(b1-4)GlcNAc(b1-2)Man(a1-6)]Man(b1-4)GlcNAc(b1-4)GlcNAc
# Procedure, shortened: as §1
# [6] = biological target: Gal(b1-4)GlcNAc(b1-3)Gal(b1-4)GlcNAc(b1-3)Gal(b1-4)GlcNAc(b1-2)Man(a1-3)[Gal(b1-4)GlcNAc(b1-3)Gal(b1-4)GlcNAc(b1-3)Gal(b1-4)GlcNAc(b1-2)Man(a1-6)]Man(b1-4)GlcNAc(b1-4)[Fuc(a1-6)]GlcNAc
# Procedure, shortened: as §1
# [7] = biological target: Gal(b1-4)GlcNAc(b1-3)Gal(b1-4)GlcNAc(b1-3)Gal(b1-4)GlcNAc(b1-2)[Gal(b1-4)GlcNAc(b1-3)Gal(b1-4)GlcNAc(b1-3)Gal(b1-4)GlcNAc(b1-6)]Man(a1-6)[Gal(b1-4)GlcNAc(b1-3)Gal(b1-4)GlcNAc(b1-3)Gal(b1-4)GlcNAc(b1-2)Man(a1-3)]Man(b1-4)GlcNAc(b1-4)[Fuc(a1-6)]GlcNAc
# Procedure, shortened: as §1
# [8] = biological target: Gal(b1-4)GlcNAc(b1-3)Gal(b1-4)GlcNAc(b1-3)Gal(b1-4)GlcNAc(b1-3)Gal(b1-4)GlcNAc(b1-2)Man(a1-3)[Gal(b1-4)GlcNAc(b1-3)Gal(b1-4)GlcNAc(b1-3)Gal(b1-4)GlcNAc(b1-3)Gal(b1-4)GlcNAc(b1-2)Man(a1-6)]Man(b1-4)GlcNAc(b1-4)GlcNAc
# Procedure, shortened: as §1
# [9] = biological target: Gal(b1-4)GlcNAc(b1-3)Gal(b1-4)GlcNAc(b1-3)Gal(b1-4)GlcNAc(b1-3)Gal(b1-4)GlcNAc(b1-2)Man(a1-3)[Gal(b1-4)GlcNAc(b1-3)Gal(b1-4)GlcNAc(b1-3)Gal(b1-4)GlcNAc(b1-3)Gal(b1-4)GlcNAc(b1-2)Man(a1-6)]Man(b1-4)GlcNAc(b1-4)[Fuc(a1-6)]GlcNAc
# Procedure, shortened: as §1
# [10] = biological target: Gal(b1-4)GlcNAc(b1-3)Gal(b1-4)GlcNAc(b1-3)Gal(b1-4)GlcNAc(b1-3)Gal(b1-4)GlcNAc(b1-2)[Gal(b1-4)GlcNAc(b1-3)Gal(b1-4)GlcNAc(b1-3)Gal(b1-4)GlcNAc(b1-3)Gal(b1-4)GlcNAc(b1-6)]Man(a1-6)[Gal(b1-4)GlcNAc(b1-3)Gal(b1-4)GlcNAc(b1-3)Gal(b1-4)GlcNAc(b1-3)Gal(b1-4)GlcNAc(b1-2)Man(a1-3)]Man(b1-4)GlcNAc(b1-4)[Fuc(a1-6)]GlcNAc
# Procedure, shortened: as §1
# [11] = biological target: Gal(b1-4)GlcNAc(b1-3)Gal(b1-4)GlcNAc(b1-3)Gal(b1-4)GlcNAc(b1-3)Gal(b1-4)GlcNAc(b1-3)Gal(b1-4)GlcNAc(b1-2)Man(a1-3)[Gal(b1-4)GlcNAc(b1-3)Gal(b1-4)GlcNAc(b1-3)Gal(b1-4)GlcNAc(b1-3)Gal(b1-4)GlcNAc(b1-3)Gal(b1-4)GlcNAc(b1-2)Man(a1-6)]Man(b1-4)GlcNAc(b1-4)GlcNAc
# Procedure, shortened: as §1
# [12] = biological target: Gal(b1-4)GlcNAc(b1-3)Gal(b1-4)GlcNAc(b1-3)Gal(b1-4)GlcNAc(b1-3)Gal(b1-4)GlcNAc(b1-3)Gal(b1-4)GlcNAc(b1-2)Man(a1-3)[Gal(b1-4)GlcNAc(b1-3)Gal(b1-4)GlcNAc(b1-3)Gal(b1-4)GlcNAc(b1-3)Gal(b1-4)GlcNAc(b1-3)Gal(b1-4)GlcNAc(b1-2)Man(a1-6)]Man(b1-4)GlcNAc(b1-4)[Fuc(a1-6)]GlcNAc
# Procedure, shortened: as §1
# [13] = biological target: Gal(b1-4)GlcNAc(b1-3)Gal(b1-4)GlcNAc(b1-3)Gal(b1-4)GlcNAc(b1-3)Gal(b1-4)GlcNAc(b1-3)Gal(b1-4)GlcNAc(b1-2)[Gal(b1-4)GlcNAc(b1-3)Gal(b1-4)GlcNAc(b1-3)Gal(b1-4)GlcNAc(b1-3)Gal(b1-4)GlcNAc(b1-3)Gal(b1-4)GlcNAc(b1-6)]Man(a1-6)[Gal(b1-4)GlcNAc(b1-3)Gal(b1-4)GlcNAc(b1-3)Gal(b1-4)GlcNAc(b1-3)Gal(b1-4)GlcNAc(b1-3)Gal(b1-4)GlcNAc(b1-2)Man(a1-3)]Man(b1-4)GlcNAc(b1-4)[Fuc(a1-6)]GlcNAc
# Procedure, shortened: as §1
# [14] = biological target: Gal(b1-4)GlcNAc(b1-3)Gal(b1-4)GlcNAc(b1-3)Gal(b1-4)GlcNAc(b1-3)Gal(b1-4)GlcNAc(b1-3)Gal(b1-4)GlcNAc(b1-3)Gal(b1-4)GlcNAc(b1-2)Man(a1-3)[Gal(b1-4)GlcNAc(b1-3)Gal(b1-4)GlcNAc(b1-3)Gal(b1-4)GlcNAc(b1-3)Gal(b1-4)GlcNAc(b1-3)Gal(b1-4)GlcNAc(b1-3)Gal(b1-4)GlcNAc(b1-2)Man(a1-6)]Man(b1-4)GlcNAc(b1-4)GlcNAc
# Procedure, shortened: as §1
# [15] = biological target: Gal(b1-4)GlcNAc(b1-3)Gal(b1-4)GlcNAc(b1-3)GalNAc
# Procedure, shortened: as §1
# [16] = biological target: Gal(b1-4)GlcNAc(b1-3)Gal(b1-4)GlcNAc(b1-3)[Gal(b1-4)GlcNAc(b1-3)Gal(b1-4)GlcNAc(b1-6)]GalNAc
# Procedure, shortened: as §1
# [17] = biological target: Gal(b1-4)GlcNAc(b1-3)Gal(b1-4)GlcNAc(b1-6)[Gal(b1-3)]GalNAc
# Procedure, shortened: as §1
# [18] = biological target: Gal(b1-4)GlcNAc(b1-3)Gal(b1-4)[Fuc(a1-3)]GlcNAc(b1-3)Gal(b1-4)[Fuc(a1-3)]GlcNAc
# Procedure, shortened: as §1
# [19] = biological target: Gal(b1-4)GlcNAc(b1-3)GalNAc
# Procedure, shortened: as §1
# [20] = biological target: Gal(b1-4)GlcNAc(b1-3)[Fuc(a1-3)GlcNAc(b1-6)]Gal(b1-4)Glc
# Procedure, shortened: as §1
# [21] = biological target: Gal(b1-4)GlcNAc(b1-3)[Gal(b1-4)GlcNAc(b1-6)]Gal(b1-4)GlcNAc
# Procedure, shortened: as §1
# [22] = biological target: Gal(b1-4)GlcNAc(b1-3)[GlcNAc(b1-6)]Gal(b1-4)GlcNAc
# Procedure, shortened: as §1
# [23] = biological target: Gal(b1-4)GlcNAc(b1-6)Gal(b1-4)GlcNAc
# Procedure, shortened: as §1
# [24] = biological target: Gal(b1-4)GlcNAc(b1-6)GalNAc
# Procedure, shortened: as §1
# [25] = biological target: Gal(b1-4)GlcNAc(b1-6)[Gal(b1-3)]GalNAc
# Procedure, shortened: as §1
# [26] = biological target: Gal(b1-4)GlcNAc(b1-6)[Gal(b1-4)GlcNAc(b1-3)]GalNAc
# Procedure, shortened: as §1
# Gal(b1-4)GlcNAc6P = biological target: Gal(b1-4)GlcNAc6P
# Procedure, shortened: as §1
# Gal(b1-6)Gal = biological target: Gal(b1-6)Gal
# Procedure, shortened: as §1
# Gal3S(b1-3)GalNAc = biological target: Gal3S(b1-3)GalNAc
# Procedure, shortened: as §1
# Gal3S(b1-3)GlcNAc = biological target: Gal3S(b1-3)GlcNAc
# Procedure, shortened: as §1
binder,measurement,setting,value
B1,glycan array binding signal (z-score),[1],-0.026
same,glycan array binding signal (z-score),[2],0.309
same,glycan array binding signal (z-score),[3],0.701
same,glycan array binding signal (z-score),[4],-0.241
same,glycan array binding signal (z-score),[5],-0.005
same,glycan array binding signal (z-score),[6],-0.079
same,glycan array binding signal (z-score),[7],0.272
same,glycan array binding signal (z-score),[8],-0.15
same,glycan array binding signal (z-score),[9],0.074
same,glycan array binding signal (z-score),[10],0.047
same,glycan array binding signal (z-score),[11],0.155
same,glycan array binding signal (z-score),[12],-0.048
same,glycan array binding signal (z-score),[13],0.274
same,glycan array binding signal (z-score),[14],-0.141
same,glycan array binding signal (z-score),[15],-0.184
same,glycan array binding signal (z-score),[16],-0.056
same,glycan array binding signal (z-score),[17],0.235
same,glycan array binding signal (z-score),[18],-0.206
same,glycan array binding signal (z-score),[19],-0.147
same,glycan array binding signal (z-score),[20],-0.127
same,glycan array binding signal (z-score),[21],0.463
same,glycan array binding signal (z-score),[22],-0.169
same,glycan array binding signal (z-score),[23],2.72
same,glycan array binding signal (z-score),[24],0.019
same,glycan array binding signal (z-score),[25],0.895
same,glycan array binding signal (z-score),[26],0.637
same,glycan array binding signal (z-score),Gal(b1-4)GlcNAc6P,-0.19
same,glycan array binding signal (z-score),Gal(b1-6)Gal,0.243
same,glycan array binding signal (z-score),Gal3S(b1-3)GalNAc,-0.153
same,glycan array binding signal (z-score),Gal3S(b1-3)GlcNAc,-0.151
